Experimental data taken from the supplement of paper PMC3334620.
Over roughly 33,000 sequences, “E-score (-0.5 to 0.5)” has its median near -0.041; the highest 2% begin near 0.37. This is one part of the list.

molecular target: T1, Ecm22 (UniProt Q05958); experiment: PBM E-score (8-mer binding enrichment) (E-score (-0.5 to 0.5)); higher = stronger / more preferred TF binding; most listed sequences are background and not binding sites; details: protein concentration: 200 nM; construct: GST-full length
T1 sequence: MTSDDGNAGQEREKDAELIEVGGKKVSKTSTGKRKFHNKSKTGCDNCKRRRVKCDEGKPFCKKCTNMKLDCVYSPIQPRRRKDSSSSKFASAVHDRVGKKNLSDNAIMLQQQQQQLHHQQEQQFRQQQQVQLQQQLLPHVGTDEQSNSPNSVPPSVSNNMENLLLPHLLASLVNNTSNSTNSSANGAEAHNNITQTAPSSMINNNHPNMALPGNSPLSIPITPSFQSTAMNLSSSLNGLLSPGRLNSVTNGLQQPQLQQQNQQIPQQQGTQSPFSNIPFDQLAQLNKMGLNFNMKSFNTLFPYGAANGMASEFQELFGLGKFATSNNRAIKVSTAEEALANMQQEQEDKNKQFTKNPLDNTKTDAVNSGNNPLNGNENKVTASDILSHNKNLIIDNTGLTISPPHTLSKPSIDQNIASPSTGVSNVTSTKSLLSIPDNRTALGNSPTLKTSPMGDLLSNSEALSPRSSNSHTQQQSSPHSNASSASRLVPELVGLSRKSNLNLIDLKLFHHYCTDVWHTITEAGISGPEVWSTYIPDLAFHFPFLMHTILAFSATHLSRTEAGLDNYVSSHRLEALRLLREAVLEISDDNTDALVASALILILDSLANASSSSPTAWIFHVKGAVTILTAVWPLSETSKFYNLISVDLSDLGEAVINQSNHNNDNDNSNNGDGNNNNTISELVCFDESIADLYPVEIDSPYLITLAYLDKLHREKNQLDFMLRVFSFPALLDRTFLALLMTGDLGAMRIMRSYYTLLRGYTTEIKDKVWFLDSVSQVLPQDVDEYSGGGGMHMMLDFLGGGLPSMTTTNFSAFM
How it was run: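 Universal all-10-mer Agilent arrays, fresh or stripped once, were converted to double-stranded form by primer extension. GST-tagged yeast transcription factors from PURExpress in vitro transcription/translation, full-length or DNA-binding domain only, were applied at about 100-200 nM and detected with fluorescent anti-GST. After masliner normalisation, the Universal PBM Analysis Suite scored each ungapped eight-base word together with its reverse complement by E-score.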

Sequence | PBM E-score
AAGCCGCG | 0.099
CCCCGTCC | -0.141
CCGCATGA | -0.0688
CCTCTAGC | -0.314
ACGCCATA | 0.0957
CAGCCAGG | -0.082
ATACCCAT | 0.0351
CTTTGTAC | 0.147
ACTGCCAG | -0.101
GGTCTTAA | -0.123
AACACGTG | 0.0179
CTAGGCCA | -0.161
TCTTGAAA | 0.0462
ACATTTGC | 0.146
ACAGAATG | 0.0451
AAAACGCA | 0.066
ACAACCCG | 0.141
GGCCGCTA | -0.0232
ATAGTATC | 0.127
AATGGACC | -0.00437
ACCTGATG | -0.0861
AGCAAGTA | -0.177
CTGCTATC | 0.0811
GGTCTTGA | -0.0235
CTGAGGAA | -0.0644

Sequence | PBM E-score
AGGGTTAA | -0.0692
AATTCGGG | 0.00085
AAAGCCAG | -0.0478
CGACGAAA | 0.249
AATTCCAT | -0.174
CGGTCTGC | 0.0314
ATTGTCCC | -0.291
GATAACCC | -0.0897
GACTTGGA | -0.133
ACGGTGGC | 0.081
AAAGAAGA | -0.133
CGTTGGAC | -0.174
CCGGTATC | -0.168
AACGCAGG | 0.0371
ACCCGGTG | -0.132
CAAATGGC | -0.129
ACGATGAA | 0.322
ACGACACC | 0.367
CATCTCAG | -0.102
CATGCAAA | 0.0661
CAGCTGCG | 0.0631
ACCGTAGA | 0.0719
GTACTTCA | 0.19
CTATCGAA | 0.0456
AACCACCG | 0.0442

Sequence | PBM E-score
ACGCGGAA | 0.0882
GACATTTA | -0.0763
CATCATCA | -0.0678
AGCACTCA | -0.0118
CGTACACG | 0.382
AAGGGCGG | -0.297
GGCCAAAA | -0.154
AGATGCGG | -0.145
CATAACAC | 0.0539
CACCATAG | -0.302
CCAACCTA | -0.352
ACTGGGCT | -0.199
GTTAAGGA | -0.0129
AGTAATTG | 0.085
CTTGCCTA | -0.158
AGACTGAC | -0.113
ATGTATAG | 0.087
AGTTCGTC | 0.207
CTGCGTCA | -0.109
CACCGGCA | -0.00934
CGCGTCCC | -0.162
ATTGCCTA | -0.312
AGGCTTCG | 0.0803
ACGCTCCG | 0.0297
GATCTTAA | 0.163

Sequence | PBM E-score
GCACGCGC | -0.106
ACGAGATC | 0.433
AGCGAGCG | 0.345
GATATTAA | 0.0321
GATCTTAC | 0.0502
GACACGTC | -0.106
CTTCAAGA | -0.29
AACTTTAG | -0.00438
AATACACG | 0.0195
CGAGGCGA | 0.139
AGCCCTCC | -0.101
CGACATGC | 0.0752
AGTTACGA | 0.393
AGGCGGAC | -0.0342
GCTGAAGC | -0.13
CTCTCTTC | -0.25
AAGCTCAA | -0.136
GAGCATTA | -0.0735
AGGAACGC | 0.208
CTTTCGGA | 0.0148
CTCTCTAA | -0.232
CTGAGCCC | -0.0136
ATCTCCTA | -0.37
CAATAGAA | -0.178
AGGTCTCC | -0.141

Sequence | PBM E-score
ACTACACC | -0.124
GCCTGAGC | -0.267
ACGTGCAC | 0.101
ACTACGGG | 0.00055
GTGGCAAA | -0.187
ATGGGGGG | -0.352
ACAACTGT | -0.148
CTAGCATC | -0.0349
AAGAGCTC | -0.194
CGGGACGC | -0.0663
ACCCGATC | 0.0785
CACCTAGG | -0.0337
AAGTGCAG | -0.161
ACTGCGAG | 0.102
AGTGCCTA | -0.205
AATTTGGG | -0.239
ATCCCAAT | -0.271
AACTCGAC | 0.09
AGAGCGCA | -0.195
AGTCAATC | 0.0883
AAGAGGGT | -0.161
CACGATCG | 0.071
AATGGGAC | -0.345
CAGGTGCA | -0.264
GTGAGCAC | -0.219

Sequence | PBM E-score
CAACATAA | 0.00862
CAAATCGG | 0.0223
CTTTGTTA | -0.0531
CACGCTCG | 0.266
AGCGCCCC | -0.153
ACCCGTCA | -0.161
AGTGCAAA | -0.0139
CGGGACCC | -0.0763
ATTATGAC | 0.0738
CTTGAGGA | -0.227
CGATATAG | 0.192
ACGTCACA | -0.0123
CACGTCTG | -0.172
CAGCTAGG | -0.373
CGGTGAAC | 0.087
GGGCGACC | -0.275
GCGGAACA | -0.109
AAATACAC | 0.0558
CAACTGCA | -0.0388
CCTCAGGC | -0.144
CGATAAAA | 0.165
ACCCTTAC | -0.0726
AACCTTGC | -0.313
CTTTCAAC | -0.118
ACATATGA | -0.103

Sequence | PBM E-score
GTCGTCCA | -0.168
CGGACTCC | -0.151
AGGGTTAG | -0.0174
AAGACCGG | -0.128
TATCCGCA | 0.211
GAGAATCA | -0.102
CATGGGGA | -0.0766
ATTCCAGA | -0.109
GATGTCAA | -0.0401
AGTGCGGG | -0.05
CATGCTCC | -0.117
AGAACAGA | -0.0933
CTTTTGAC | -0.161
AGTACTAG | 0.0292
CGACCAAG | 0.121
TGGAAAAA | 0.0283
CTCTTCAG | -0.058
CGTTTGTA | 0.284
GCCGTTTA | 0.421
CCTACGGA | -0.34
GAAGTGGC | -0.094
CCGACATC | 0.0854
